Bounds are passed on as bounds.

A word on the koff: it is a measure of how fast the partners let go of each other. For orientation: Kd means a measure of binding affinity in units of concentration. The low end stands for a tighter complex, the high end for a looser complex.

Data set [1] in a line: Far-UV circular dichroism thermal and pH stability. The format is physicochemical. As to the method:
Affibody folding stabilities were determined by measuring their far-ultraviolet (UV) circular dichroism (CD) spectra. To assess affibody stability across a range of physiologically relevant pH, affibodies were buffer exchanged into 10 mM Tris at pH 6, 7, 7.4, or 8 and diluted to 0.3 mg/mL. Affibody absorption spectra were then assessed as described above after 4 hours of incubation in the different pH media at room temperature.
To determine affibody melting temperatures, samples were prepared in 10 mM Tris pH 7.4 at 0.3 mg/mL. […] Far-UV spectra were taken before heating at 20° C., at 95° C., and after heating at 20° C. Melting temperatures were determined by fitting the change in 220 nm signal over the temperature range to a Boltzmann sigmoidal curve.
To assess affibody thermal stabilities, affibodies were buffer-exchanged into Tris 10 mM pH 7.4 and diluted to 0.3 mg/mL. To avoid potential freeze/thaw degradation after thermal degradation screening, affibodies were aliquoted and then immediately stored at −80° C. Affibody aliquots were removed from −80° C. and placed at either room temperature, 37° C., or 42° C. for a total of 1, 4, or 7 days. Far-UV spectra were measured as described above for all replicates of each temperature condition and plotted to determine the change in fraction folded compared to a baseline sample.
Affibody folding stabilities were determined by measuring their far-ultraviolet (UV) circular dichroism (CD) spectra.
Within extracellular spaces, bicarbonate and phosphate species within interstitial fluid are the main buffering components regulating pH. Tissue damage caused by chronic disease or injury can result in interstitial fluid pH ranging from 5-8. As such, affibody folding stabilities under variable pH were determined by incubation in 10 mM Tris at pH 6.0, 7.0, 7.4, or 8.0. Affibody folding stabilities under prolonged exposure to temperature treatment conditions were determined by incubation at room temperature (25° C.), physiological temperature (37° C.), and elevated temperature (42° C.) over 7 days (1, 4, or 7 days).

In another data set the target is PDGF-BB (Homo sapiens, UniProt P01127). The data set can be described thus: Biolayer interferometry, affibody vs PDGF. Also noted: purchased PeproTech. Format: binding. As to the method:
The binding interaction between PDGF and each soluble affibody was measured using a Gator® Plus biolayer interferometer (BLI; Gator Bio). Each soluble His-tagged affibody was diluted to 200 nM in PBS with 0.05% Tween20 (PBST; Thermo Fisher). Recombinant human PDGF-BB was buffer-exchanged into PBS and diluted to concentrations between 0-50 nM in PBST. Ni-NTA coated BLI probes (Gator Bio) were pre-soaked in 250 μL PBST for 45 minutes. The probes were then baselined with 200 μL PBST for 300 seconds and loaded with affibody for 180 seconds or until the wavelength shift plateaued. A new baseline was established using 200 μL PBST for 180 seconds, followed by 600 seconds of association with 200 μL of the various concentrations of rhPDGF-BB and dissociation for 600 seconds in 200 μL PBST.
(§1) Loaded probes were submerged in PBST until the baseline wavelength reading stabilized (approximately 300 seconds). 3.125-1000 nM of soluble VEGF-specific affibodies serially diluted in PBST were associated to the bVEGF-loaded probes for 600 seconds. Probes were then submerged into PBST or 600 seconds to measure dissociation of the affibodies. For measuring binding between PDGF and PDGF-specific affibodies, nitrilotriacetic acid (Ni-NTA) functionalized glass probes (GatorBio) were similarly pre-soaked in PBST, then loaded with 200 nM of PDGF-specific affibodies in PBST for 300 seconds until an approximate wavelength shift of 0.5 nm was achieved. Loaded probes were submerged in PBST until the baseline wavelength reading stabilized (approximately 300 seconds). 1.563-50 nM of soluble PDGF serially diluted in PBST were associated to the affibody-loaded probes for 600 seconds. Probes were then submerged into PBST for 600 seconds to measure dissociation of PDGF. Measurements were also taken of bVEGF loaded onto the streptavidin-functionalized probes without affibodies, affibodies loaded onto Ni-NTA probes without PDGF, and 0.0625-50 nM of PDGF without affibodies loaded onto Ni-NTA probes to subtract background signal from the data. Binding curves were normalized to data from probes loaded with only affibodies and only growth factors using GatorOne software 2.10 (GatorBio).
(§2) Biolayer interferometry (BLI) was also performed using streptavidin-functionalized glass probes to measure binding of affibodies to their off-target proteins.
(§3) Binding curves were fit to a global best-fit, non-linear regression model using GraphPad Prism 10.1.1 in which R^2>0.97 to determine the equilibrium dissociation constant (KD), on-rate constant (koff), and off-rate constant (kon) of each binding interaction.
Rosetta Rational Design Generates PDGF-specific Affibodies with Unique Binding Kinetics: Binding of PDGF to PDGF-specific affibodies was evaluated by loading nickel nitrilotriacetic acid (Ni-NTA)-coated BLI probes with 200 nM of each of the PDGF affibodies, followed by association of 1.563-50 nM of PDGF (FIG. 45G). […] Similar to the VEGF-specific affibody, the lower observed affinity between the original PDGF-specific affibody and PDGF on yeast surface display could be due to increased steric hindrance and decreased mobility of the PDGF-affibody binding interface compared to BLI.
In general terms: Biolayer interferometry detects binding as a change in optical thickness at a sensor tip.

The target in another data set is T1, FGF-2 (Homo sapiens, UniProt P09038).
T1 construct: biotin (label as supplied by the vendor); purchased Acro Biosystems
T1 sequence (P09038 134-288): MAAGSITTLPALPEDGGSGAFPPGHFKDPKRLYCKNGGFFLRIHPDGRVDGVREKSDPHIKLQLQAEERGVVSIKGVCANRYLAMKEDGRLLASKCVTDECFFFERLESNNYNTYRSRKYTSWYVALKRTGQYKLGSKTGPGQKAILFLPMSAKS
The data set can be described thus: Biolayer interferometry, soluble affibody vs bFGF-2. Format: binding. Particulars: 25 nM bFGF-2 on probe, 1000 nM affibody. The text has this:
To further explore the affibody off-target binding observed on yeast surface display, biolayer interferometry (BLI) was used to measure off-target binding between soluble affibodies and proteins.

The target in a further data set is T2, VEGF (Homo sapiens, UniProt P15692).
T2 construct: biotin (label as supplied by the vendor); purchased Acro Biosystems
T2 sequence (P15692 1-191 isoform P15692-4): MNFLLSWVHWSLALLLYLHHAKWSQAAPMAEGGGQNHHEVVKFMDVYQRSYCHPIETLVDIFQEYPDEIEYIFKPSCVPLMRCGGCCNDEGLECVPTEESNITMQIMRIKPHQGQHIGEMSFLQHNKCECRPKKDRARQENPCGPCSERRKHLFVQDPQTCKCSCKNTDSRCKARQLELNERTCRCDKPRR
Kind of data set: Biolayer interferometry, soluble affibody vs bVEGF. Particulars: 25 nM bVEGF on probe; 1000 nM affibody. The format is binding. As to the method:
as §1, §2, §3
The weaker affinity observed on yeast surface display was likely due to increased steric hindrance and decreased mobility of the VEGF-affibody binding interface when the affibody was fixed within the yeast surface display construct compared to being freely accessible in solution during BLI.

[2] abbreviates: BLI, binding to PDGF, global fit.

PDGF-BB, sequence (P01127 82-190 limits assumed): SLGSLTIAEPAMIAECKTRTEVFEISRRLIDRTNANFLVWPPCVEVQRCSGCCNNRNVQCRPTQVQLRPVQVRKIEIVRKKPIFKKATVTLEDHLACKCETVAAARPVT

“AEAKYAFELWEAQHEIQQLPNLRPDQIAAFAMALYDDPSQSSELLSEAKKLNDSQAPK [SEQ ID NO: 59]”: in data set [1] (10 mM Tris pH 7.4), the “time of complete unfolding at 37° C.” value is at most 7 days and the “time of complete unfolding at 42° C.” value is at most 4 days. The “folding at pH 6.0, 7.0, 7.4, and 8.0” value in data set [1] (10 mM Tris, far-UV CD spectra) is recorded as “identical spectra”. Besides, the “melting temperature (Tm)” value in data set [1] (CD at 220 nm, 20 to 95° C., 10 mM Tris pH 7.4) stood at 55.4 °C. For the same sequence, the “folding on incubation at room temperature” value in data set [1] (Day 4 and Day 7 vs Day 1 and initial) is “modest degree of unfolding”. The “folding after heating to 95° C. and cooling to 20° C.” value in data set [1] (far-UV CD spectra) is reported as “reversible folding”. The “higher equilibrium dissociation constant than PDGF Affibody-16” value with PDGF-BB (BLI) is recorded as 10 fold. For the same sequence, in the data set with PDGF-BB (setting [2]), the off-rate (koff) came out at 0.01822 s⁻¹ and the kon is listed as 236,620 M^−1 s^−1. The dissociation constant (Kd) with PDGF-BB (Table 1, engineered PDGF affibodies, values match BLI) was 77.3 nM. For the same sequence, the “binding to bFGF-2 on BLI (specificity)” value with FGF-2 is given as “no binding”. Also, the “binding to bFGF-2 on BLI (specificity)” value in the data set with FGF-2 (listed as PDGF High Affibody) is listed as “moderate off-target binding to FGF-2”. In the data set with VEGF, the “binding to bVEGF on BLI (specificity)” value is given as “no binding”.

Source of the values: patent US20250382361A1, “AFFIBODIES, HYDROGELS CONTAINING AFFIBODIES, AND USES THEREOF” (University of Oregon, priority 2024, published 2025).
